Assay results as given in publication PMC11116414, “Impact of secretin receptor homo-dimerization on natural ligand binding” (Nature Communications, 2024).

B1: human wild type secretin receptor (SecR WT) [human] / Cys5-[Tyr10]secretin(1-27) agonist probe [modified: 125I on Tyr10 (mono-iodinated)] [human] (parent)
chain 1: HSDGCFTSEYSRLREGARLQRLLQGLV
chain 2: HSTGALPRLCDVLQVLWEEQDQCLQELSREQTGDLGTEQPVPGCEGMWDNISCWPSSVPGRMVEVECPRFLRMLTSRNGSLFRNCTQDGWSETFPRPNLACGVNVNDSSNEKRHSYLLKLKVMYTVGYSSSLVMLLVALGILCAFRRLHCTRNYIHMHLFVSFILRALSNFIKDAVLFSSDDVTYCDAHRAGCKLVMVLFQYCIMANYSWLLVEGLYLHTLLAISFFSERKYLQGFVAFGWGSPAIFVALWAIARHFLEDVGCWDINANASIWWIIRGPVILSILINFILFINILRILMRKLRTQETRGNEVSHYKRLARSTLLLIPLFGIHYIVFAFSPEDAMEIQLFFELALGSFQGLVVAVLYCFLNGEVQLEVQKKWQQWHLREFPLHPVASFSNSTKASHLEQSQGTCRTSII

Variants of: B1
Test: cysteine trapping, autoradiograph densitometry
Settings: with Cys5-[Tyr10]secretin(1-27) agonist probe [modified: 125I on Tyr10 (mono-iodinated)] [human]; ECL2 series; intact COS-1 cells; non-reducing 10% SDS-PAGE; n = 5; read off a plot

| screen value (% of maximum signal) | Variant |
| --- | --- |
| 80 | chain 2 HSTGALPRLCDVLQVLWEEQDQCLQELSREQTGDLGTEQPVPGCEGMWDNISCWPSSVPGRMVEVECPRFLRMLTSRNGSLFRNCTQDGWSETFPRPNLACGVNVNDSSNEKRHSYLLKLKVMYTVGYSSSLVMLLVALGILCAFRRLHCTRNYIHMHLFVSFILRALSNFIKDAVLFSSDDVTYCDAHRAGCKLVMVLFQYCIMANYSWLLVEGLYLHTLLAISFFSERKYLQGFVAFGWASPAAFVALWAIARHFLEDVGCWDINANASICWIIRGPVILSILINFILFINILRILMRKLRTQETRGNEVSHYKRLARSTLLLIPLFGIHYIVFAFSPEDAMEIQLFFELALGSFQGLVVAVLYCFLNGEVQLEVQKKWQQWHLREFPLHPVASFSNSTKASHLEQSQGTCRTSII [chain 2 G242A I246A W273C] |
| 90 | chain 2 HSTGALPRLCDVLQVLWEEQDQCLQELSREQTGDLGTEQPVPGCEGMWDNISCWPSSVPGRMVEVECPRFLRMLTSRNGSLFRNCTQDGWSETFPRPNLACGVNVNDSSNEKRHSYLLKLKVMYTVGYSSSLVMLLVALGILCAFRRLHCTRNYIHMHLFVSFILRALSNFIKDAVLFSSDDVTYCDAHRAGCKLVMVLFQYCIMANYSWLLVEGLYLHTLLAISFFSERKYLQGFVAFGWASPAAFVALWAIARHFLEDVGCWDINANCSIWWIIRGPVILSILINFILFINILRILMRKLRTQETRGNEVSHYKRLARSTLLLIPLFGIHYIVFAFSPEDAMEIQLFFELALGSFQGLVVAVLYCFLNGEVQLEVQKKWQQWHLREFPLHPVASFSNSTKASHLEQSQGTCRTSII [chain 2 G242A I246A A270C] |
| 70 | chain 2 HSTGALPRLCDVLQVLWEEQDQCLQELSREQTGDLGTEQPVPGCEGMWDNISCWPSSVPGRMVEVECPRFLRMLTSRNGSLFRNCTQDGWSETFPRPNLACGVNVNDSSNEKRHSYLLKLKVMYTVGYSSSLVMLLVALGILCAFRRLHCTRNYIHMHLFVSFILRALSNFIKDAVLFSSDDVTYCDAHRAGCKLVMVLFQYCIMANYSWLLVEGLYLHTLLAISFFSERKYLQGFVAFGWASPAAFVALWAIARHFLEDVGCWDCNANASIWWIIRGPVILSILINFILFINILRILMRKLRTQETRGNEVSHYKRLARSTLLLIPLFGIHYIVFAFSPEDAMEIQLFFELALGSFQGLVVAVLYCFLNGEVQLEVQKKWQQWHLREFPLHPVASFSNSTKASHLEQSQGTCRTSII [chain 2 G242A I246A I266C] |

Same assay, conditions: with Cys5-[Tyr10]secretin(1-27) agonist probe [modified: 125I on Tyr10 (mono-iodinated)] [human]; ECL3 series; intact COS-1 cells; non-reducing 10% SDS-PAGE; n = 5; read off a plot

| screen value (% of maximum signal) | Variant |
| --- | --- |
| 78 | chain 2 HSTGALPRLCDVLQVLWEEQDQCLQELSREQTGDLGTEQPVPGCEGMWDNISCWPSSVPGRMVEVECPRFLRMLTSRNGSLFRNCTQDGWSETFPRPNLACGVNVNDSSNEKRHSYLLKLKVMYTVGYSSSLVMLLVALGILCAFRRLHCTRNYIHMHLFVSFILRALSNFIKDAVLFSSDDVTYCDAHRAGCKLVMVLFQYCIMANYSWLLVEGLYLHTLLAISFFSERKYLQGFVAFGWASPAAFVALWAIARHFLEDVGCWDINANASIWWIIRGPVILSILINFILFINILRILMRKLRTQETRGNEVSHYKRLARSTLLLIPLFGIHYIVFAFSPEDCMEIQLFFELALGSFQGLVVAVLYCFLNGEVQLEVQKKWQQWHLREFPLHPVASFSNSTKASHLEQSQGTCRTSII [chain 2 G242A I246A A343C] |
| 55 | chain 2 HSTGALPRLCDVLQVLWEEQDQCLQELSREQTGDLGTEQPVPGCEGMWDNISCWPSSVPGRMVEVECPRFLRMLTSRNGSLFRNCTQDGWSETFPRPNLACGVNVNDSSNEKRHSYLLKLKVMYTVGYSSSLVMLLVALGILCAFRRLHCTRNYIHMHLFVSFILRALSNFIKDAVLFSSDDVTYCDAHRAGCKLVMVLFQYCIMANYSWLLVEGLYLHTLLAISFFSERKYLQGFVAFGWASPAAFVALWAIARHFLEDVGCWDINANASIWWIIRGPVILSILINFILFINILRILMRKLRTQETRGNEVSHYKRLARSTLLLIPLFGIHYIVFAFSPEDACEIQLFFELALGSFQGLVVAVLYCFLNGEVQLEVQKKWQQWHLREFPLHPVASFSNSTKASHLEQSQGTCRTSII [chain 2 G242A I246A M344C] |
| 68 | chain 2 HSTGALPRLCDVLQVLWEEQDQCLQELSREQTGDLGTEQPVPGCEGMWDNISCWPSSVPGRMVEVECPRFLRMLTSRNGSLFRNCTQDGWSETFPRPNLACGVNVNDSSNEKRHSYLLKLKVMYTVGYSSSLVMLLVALGILCAFRRLHCTRNYIHMHLFVSFILRALSNFIKDAVLFSSDDVTYCDAHRAGCKLVMVLFQYCIMANYSWLLVEGLYLHTLLAISFFSERKYLQGFVAFGWASPAAFVALWAIARHFLEDVGCWDINANASIWWIIRGPVILSILINFILFINILRILMRKLRTQETRGNEVSHYKRLARSTLLLIPLFGIHYIVFAFSPEDAMEIQLFFECALGSFQGLVVAVLYCFLNGEVQLEVQKKWQQWHLREFPLHPVASFSNSTKASHLEQSQGTCRTSII [chain 2 G242A I246A L352C] |
| 53 | chain 2 HSTGALPRLCDVLQVLWEEQDQCLQELSREQTGDLGTEQPVPGCEGMWDNISCWPSSVPGRMVEVECPRFLRMLTSRNGSLFRNCTQDGWSETFPRPNLACGVNVNDSSNEKRHSYLLKLKVMYTVGYSSSLVMLLVALGILCAFRRLHCTRNYIHMHLFVSFILRALSNFIKDAVLFSSDDVTYCDAHRAGCKLVMVLFQYCIMANYSWLLVEGLYLHTLLAISFFSERKYLQGFVAFGWASPAAFVALWAIARHFLEDVGCWDINANASIWWIIRGPVILSILINFILFINILRILMRKLRTQETRGNEVSHYKRLARSTLLLIPLFGIHYIVFAFSPECAMEIQLFFELALGSFQGLVVAVLYCFLNGEVQLEVQKKWQQWHLREFPLHPVASFSNSTKASHLEQSQGTCRTSII [chain 2 G242A I246A D342C] |
